The record followed here is PubChem BioAssay AID360 (National Center for Advancing Translational Sciences (NCATS), 2006).

Out of some 48,000 compounds screened, about 550 (1.1%) were called active. Inconclusive results (about 4%) are left out. Rule as the data show it: active = potency below about 15 µM; inconclusive = mostly about 16 µM to 33 µM; inactive = weaker than that. The list shows a part of the results.
Potency is read from the fitted curve at half-maximal effect.

This experiment deals with Lysosomal acid glucosylceramidase (Homo sapiens) (UniProt P04062). The experiment can be described thus: Glucocerebrosidase.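 Also: the screen sought inhibitors.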 To be noted: purified enzyme, resorufin glucoside fluorescence (screen aimed at inhibitors), 20 min. In short, it runs like this: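 Wild-type enzyme at 0.2 nM final in 50mM citric acid/KH2PO4, 10mM sodium taurocholate, 0.01% tween-20, pH 5.9, with resorufin beta-D-glucopyranoside at 30 uM final. Compounds titrated, 20 min at RT, red fluorescence read; AC50 from titration.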
Chain of UniProt P04062 (P04062 whole entry, looked up): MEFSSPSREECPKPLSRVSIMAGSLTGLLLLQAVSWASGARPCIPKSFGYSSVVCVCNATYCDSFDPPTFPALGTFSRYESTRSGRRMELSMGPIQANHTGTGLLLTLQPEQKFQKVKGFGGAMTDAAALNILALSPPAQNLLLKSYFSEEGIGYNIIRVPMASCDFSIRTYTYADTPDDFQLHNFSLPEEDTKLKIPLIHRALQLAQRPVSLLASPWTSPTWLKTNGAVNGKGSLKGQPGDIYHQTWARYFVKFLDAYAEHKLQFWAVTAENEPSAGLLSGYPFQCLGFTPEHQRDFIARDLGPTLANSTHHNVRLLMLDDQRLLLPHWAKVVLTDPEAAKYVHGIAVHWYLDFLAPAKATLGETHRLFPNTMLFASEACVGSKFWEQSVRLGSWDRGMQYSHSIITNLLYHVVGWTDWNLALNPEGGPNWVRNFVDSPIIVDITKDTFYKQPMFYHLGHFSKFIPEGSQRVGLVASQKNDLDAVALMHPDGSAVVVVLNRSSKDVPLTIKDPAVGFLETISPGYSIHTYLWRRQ
For `CCOC(=O)c1cc2sccc2n1CC(=O)Nc1ccc(OC)cc1OC`, the Potency was inactive: > 76.9 µM.

With `NS(=O)(=O)c1ccc(CCNc2nc(CN3CCOCC3)nc3sc4c(c23)CCC4)cc1`, the Potency was inactive: > 76.9 µM.

As to `Cc1occc1-c1nnc(SCC(=O)N2CCN(c3ccccc3F)CC2)n1C`, the Potency is inactive: > 76.9 µM.

On to `CCOc1ccccc1C(=O)NCC(=O)OCC(=O)c1ccc2c(c1)OCCO2`, for which the Potency is inactive: > 76.9 µM.

Consider `Cc1nc(NC(=O)CSc2nnc(C)n2CC2CCCO2)sc1C` (stereo unspecified), for which the Potency was inactive: > 76.9 µM.

For `CCc1ccccc1N(C(=O)Cn1nnc2ccccc21)C(C(=O)NCCOC)c1ccco1` (stereo unspecified), the Potency was inactive: > 76.9 µM.

For `CCN(CC)CCCNC(CC(=O)O)C(=O)O` (stereo unspecified), the Potency is inactive: > 76.9 µM.

Consider `Cc1cc(C)n(-c2nc3c(c(=O)[nH]c(=O)n3C)n2C(C)C)n1`, for which the Potency was inactive: > 76.9 µM.

Turning to `CN1CCN(CCCNC(=O)Cn2nc(-c3ccccc3)ccc2=O)CC1`, the Potency is inactive: > 76.9 µM.

On to `CCCCN(CCCC)CCNC(=O)Cc1nc2c(c(=O)[nH]c(=O)n2C)n1C`, for which the Potency is inactive: > 76.9 µM.

Take `O=C(C1CCC1)N(CCc1ccccc1)Cc1nc2ccccc2c(=O)[nH]1`: the Potency is inactive: > 76.9 µM.

For `Cc1cc2cc(CNC(=O)c3ccc4c(c3)OCO4)ccc2[nH]1`, the Potency was inactive: > 76.9 µM.

`COc1ccc(CCNS(=O)(=O)c2ccc(F)cc2)cc1OC`: the Potency was inactive: > 76.9 µM.

As for `COc1ccc(NC(=O)CSc2nnc(COc3ccccc3)n2Cc2ccco2)cc1OC`, the Potency was inactive: > 76.9 µM.

Turning to `Cc1ccc(C2CC(=O)N3CN(Cc4ccco4)CSC3=C2C#N)cc1` (stereo unspecified), the Potency was inactive: > 76.9 µM.

As to `CN(CC(=O)NCc1ccc(F)cc1)S(=O)(=O)c1cccc2nsnc12`, the Potency is inactive: > 76.9 µM.

Consider `c1csc(C2C3=C(Nc4ncnn42)c2ccccc2OC3)c1` (stereo unspecified), for which the Potency result was “inactive”.

`O=C(CSc1nnc(CN2CCCCCC2=O)n1-c1ccccn1)NCC(F)(F)F`: the Potency was inactive: > 76.9 µM.

Regarding `CCc1sc(NC(=O)COC)nc1-c1ccccc1`, the Potency is inactive: > 76.9 µM.

On to `CCOc1ccccc1NC(=O)N1CCC(c2nc3ccccc3[nH]2)CC1`, for which the Potency is inactive: > 76.9 µM.

As for `CNC(=O)CN1C(=O)C2C3C=CC(C3)C2C1=O` (stereo unspecified), the Potency was inactive: > 76.9 µM.

`CC(C)OC(=O)c1c(NC(=O)CCn2nnc3ccccc32)sc2c1CCCC2`: the Potency is inactive: > 76.9 µM.

Take `O=C(Cc1cn2ccsc2n1)Nc1ccccc1Oc1ccccc1`: the Potency was inactive: > 76.9 µM.

Take `COC(=O)c1ccc(C2C(C(=O)OCC(C)C)=C(C)N=C3SCCC(=O)N32)cc1` (stereo unspecified): the Potency is inactive: > 76.9 µM.

For `O/C(=C\Sc1nnc(Cc2ccccc2)o1)c1ccc(Br)cc1`, the Potency was inactive: > 76.9 µM.

As to `CCOC(=O)c1sc2ncn(CC(=O)NCC3CCCO3)c(=O)c2c1C` (stereo unspecified), the Potency was inactive: > 76.9 µM.

Consider `Cc1cc(C(=O)Nc2nc3c(s2)CCCC3)no1`, for which the Potency was inactive: > 76.9 µM.

As for `O=C(NCc1cccnc1)C1CCN(S(=O)(=O)c2cccs2)CC1`, the Potency is inactive: > 76.9 µM.

`O=C(NC1CCCCC1)C(c1ccncc1)N(CC1CCCO1)C(=O)C(F)(F)F` (stereo unspecified): the Potency is inactive: > 76.9 µM.

Consider `CCOc1nc(-c2ccccc2O)nc2ccccc12`, for which the Potency is inactive: > 76.9 µM.

Consider `Cn1c(=O)c2c(nc(SCc3cccnc3)n2Cc2ccc(F)cc2)n(C)c1=O`, for which the Potency was inactive: > 76.9 µM.

Regarding `CCOc1ccc(C(=O)C2CCN(C(=O)c3ccccc3C(=O)O)CC2)cc1`, the Potency was inactive: > 76.9 µM.

On to `Cc1cccc(C)c1NC(=O)N1CC=C(n2c(=O)[nH]c3ccccc32)CC1`, for which the Potency is inactive: > 76.9 µM.

As for `Cc1ccc(OCC(=O)Nc2ccc(O)c(C(=O)O)c2)cc1C`, the Potency is inactive: > 76.9 µM.

For the molecule `COc1ccc(C2CC(c3ccccc3)Nc3nc(NC(=O)c4ccco4)nn32)cc1` (stereo unspecified), the Potency was inactive: > 76.9 µM.

Regarding `COC(=O)NCc1cc2cc(Cl)ccc2[nH]1`, the Potency is inactive: > 76.9 µM.

On to `Cc1nn(-c2ccc(F)cc2)c2sc(C(=O)OCC(=O)N3CCC(C)CC3)cc12`, for which the Potency is inactive: > 76.9 µM.

`COc1ccc(-c2nc(C#N)c(NCCc3ccccc3)o2)cc1OC`: the Potency was inactive: > 76.9 µM.

For the molecule `Cn1cccc1C(=O)OCC(=O)c1cc2ccccc2o1`, the Potency was inactive: > 76.9 µM.

Consider `C/C=C(\C)c1nnc(NC(=O)c2ccco2)s1`, for which the Potency is inactive: > 76.9 µM.

Consider `CCN(CC)S(=O)(=O)c1ccc2c(c1)nc(SCn1nnc3ccccc3c1=O)n2CC`, for which the Potency is inactive: > 76.9 µM.

For the molecule `O=C(OC(C(=O)NCC1CCCO1)c1ccccc1F)c1ccco1` (stereo unspecified), the Potency is inactive: > 76.9 µM.

In the case of `COc1ccccc1Cc1noc(C(C)(C)NC(=O)c2ccccc2)n1`, the Potency was inactive: > 76.9 µM.

`COc1ccc(C2CC(c3cc(OC)ccc3OC)n3nnnc3N2)cc1` (stereo unspecified): the Potency is inactive: > 76.9 µM.

For the molecule `O=C(Cn1cnc2ccccc21)OCC(=O)N1CCCc2ccccc21`, the Potency is inactive: > 76.9 µM.

For the molecule `Cc1noc(C)c1CSc1nnc(-c2ccccc2)n1Cc1ccco1`, the Potency is inactive: > 76.9 µM.

With `O=C(Oc1cccc2cccnc12)c1ccc2c(c1)OCCO2`, the Potency is inactive: > 76.9 µM.

Turning to `CC(=O)NCCOc1cccc(OCCNC(C)=O)c1`, the Potency was inactive: > 76.9 µM.

As for `COCCSc1ccccc1C(=O)NCc1ccco1`, the Potency is inactive: > 76.9 µM.

Regarding `Cc1cccc(N(C(=O)Cn2nnc3ccccc32)C(C(=O)NCc2ccco2)c2ccncc2)c1C` (stereo unspecified), the Potency was inactive: > 76.9 µM.

Turning to `O=C(NCc1cccc(Cl)c1)c1ccc2c(c1)OCO2`, the Potency was inactive: > 76.9 µM.

In the case of `COCCNC(=O)C1CCN(S(=O)(=O)N2CCC3(CC2)OCCO3)CC1`, the Potency was inactive: > 76.9 µM.

`CCc1cc2c(cc3c(=O)n(CC(=O)N4CCN(c5ccccn5)CC4)nc(CC)n32)s1`: the Potency was inactive: > 76.9 µM.

`COc1ccc(NC(=O)Cn2nnc(-c3ccccc3N)n2)cc1OC`: the Potency was inactive: > 76.9 µM.

On to `CC1CCCCN1CCNC(=O)CN1C(=O)COc2ccccc21` (stereo unspecified), for which the Potency was inactive: > 76.9 µM.

`CCOc1ccccc1N1CCN(C(=O)c2ccccc2)CC1`: the Potency was inactive: > 76.9 µM.

Turning to `COc1cccc(C(=O)Nc2ncc3c(n2)CC(C)CC3=O)c1` (stereo unspecified), the Potency is inactive: > 76.9 µM.

Take `CCc1cccc(NC(=O)NC2CCCCC2)c1`: the Potency was inactive: > 76.9 µM.

Consider `Cc1cc(NC(=O)COn2nnc3ccccc32)no1`, for which the Potency is inactive: > 76.9 µM.

On to `Nc1nnc(SCC(=O)Nc2ccccc2N2CCOCC2)s1`, for which the Potency is inactive: > 76.9 µM.

As to `Cc1ccccc1NC(=O)c1c(-c2ccccc2)noc1C`, the Potency was inactive: > 76.9 µM.

Consider `O=C(Nc1ccccc1)N1CCn2c1nc1ccccc12`, for which the Potency was inactive: > 76.9 µM.

For `Cc1cc(N/C=C2\CCCCC2=O)no1`, the Potency is inactive: > 76.9 µM.

In the case of `Cc1cc(NC(=O)COC(=O)c2n[nH]c3ccccc23)no1`, the Potency is inactive: > 76.9 µM.

As for `CCC(=O)N1c2ccc(S(=O)(=O)CCC(=O)N3CCN(c4ccccc4)CC3)cc2CC1C` (stereo unspecified), the Potency was inactive: > 76.9 µM.

On to `CN(C)CCCN1C(=O)C(=O)/C(=C(/O)c2ccncc2)C1c1cccnc1` (stereo unspecified), for which the Potency is inactive: > 76.9 µM.

Turning to `COc1ccccc1NS(=O)(=O)c1ccc(O)c(C(N)=O)c1`, the Potency was inactive: > 76.9 µM.

For `NC(=O)c1sc2nccc(Nc3ccccc3)c2c1N`, the Potency was inactive: > 76.9 µM.

On to `Cc1ccc(-c2nn[nH]n2)o1`, for which the Potency is inactive: > 76.9 µM.

In the case of `CCOc1ccccc1NS(=O)(=O)c1ccc(OC)c(OC)c1`, the Potency was inactive: > 76.9 µM.

With `CCn1nc(NC(=O)c2ccccn2)c2cc3cc(C)ccc3nc21`, the Potency is inactive: > 76.9 µM.

Take `O=C(OCc1nnc(-c2ccccc2)o1)C1CCN(S(=O)(=O)c2cccs2)CC1`: the Potency is inactive: > 76.9 µM.

`O=C(Nc1ccccc1)NC1(C(=O)NCc2ccco2)CCCCC1`: the Potency is inactive: > 76.9 µM.

`COc1cc(CO)cc(-c2cc(CO)cc(OC)c2OC)c1OC`: the Potency was inactive: > 76.9 µM.

In the case of `CCN(C(=O)c1cccs1)c1nnc(-c2ccncc2)s1`, the Potency was inactive: > 76.9 µM.

In the case of `Cc1ccc(C(NC(=O)N2CCOCC2)=C(Cl)Cl)cc1F`, the Potency is inactive: > 76.9 µM.

As to `COc1cc(-n2c(=O)c3ccccc3n(Cc3cccnc3)c2=O)cc(OC)c1OC`, the Potency was inactive: > 76.9 µM.

For the molecule `CC(=O)C1=C(O)CCC1=N`, the Potency is inactive: > 76.9 µM.

Regarding `Cc1c(CN2CCN(c3cccc(C(F)(F)F)c3)CC2)c(=O)n(-c2ccccc2)n1C`, the Potency is inactive: > 76.9 µM.

Consider `COc1ccc2[nH]c(=O)c(CN(CCN(C)C)C(=O)NCc3ccccc3)cc2c1`, for which the Potency was inactive: > 76.9 µM.

Consider `COc1cccc(-c2cc(C(=O)Nc3cnn(Cc4ccccc4C)c3)no2)c1`, for which the Potency is inactive: > 76.9 µM.

Turning to `CC(C)NC(=O)C1(O)c2ccccc2NC(=O)N1c1ccc(Cl)c(Cl)c1` (stereo unspecified), the Potency is inactive: > 76.9 µM.

For `c1cc2c(nn1)CCc1nonc1-2`, the Potency was inactive: > 76.9 µM.

Take `COCCn1c(C)cc(C(=O)COC(=O)c2ccc3ncsc3c2)c1C`: the Potency was inactive: > 76.9 µM.

For `COc1ccc(CC(=O)N(Cc2cc3cc(OC)ccc3[nH]c2=O)C(C)C)cc1`, the Potency was inactive: > 76.9 µM.

In the case of `c1ccc2c(c1)CCCC2C1=NCCN1` (stereo unspecified), the Potency was inactive: > 76.9 µM.

For the molecule `S=c1[nH]nc(COc2ccc3c(c2)OCO3)n1-c1ccccc1`, the Potency was inactive: > 76.9 µM.

`O=C(CSc1nc2ccccc2n1CC(=O)N1CCCC1)Nc1nccs1`: the Potency was inactive: > 76.9 µM.

On to `Cc1ccc(SCc2[nH]nc3c2C(c2cccnc2)C(C#N)=C(N)O3)cc1` (stereo unspecified), for which the Potency is inactive: > 76.9 µM.

For the molecule `O=C(Cn1nnc(-c2ccc(CN3CCOCC3)cc2)n1)Nc1nc(-c2ccccc2)cs1`, the Potency is inactive: > 76.9 µM.

Consider `COc1ccc(N2CCN(C(=O)c3cc4c(-c5cccc(OC)c5)nn(C)c4s3)CC2)cc1`, for which the Potency was inactive: > 76.9 µM.
